# In the supplement of paper PMC7826260:
# Some of the results follow. Each Rep nickase domain was tested in vitro on the same pool of single strands (3 µM enzyme, 1 h, 37 °C); shown is the middle of each 90-letter strand. A value is the log2 ratio of uncut reads to the pool without enzyme; uncut sequences lie near 0, cut ones below; no hit call is given. Counts are relative to all reads, so uncut sequences can rise above 0 when many others are cut.
# How the values were obtained:
# Assay in all cases: uncleaved DNA left, log2 of reads against the no-enzyme library (log2 ratio); higher = less cleavage (more negative = more Rep cleavage of the k-mer); sequences stand for … in CTCGTCCG…ACCGGAGA
# [1] = tested on: T1, Rep nickase domain of Muscovy duck circovirus
# T1 sequence (protein, residues 1-111, tag omitted): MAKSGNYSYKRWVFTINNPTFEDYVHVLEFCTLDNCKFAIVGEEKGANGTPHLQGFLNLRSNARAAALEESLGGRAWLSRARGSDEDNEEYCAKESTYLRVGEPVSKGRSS
# Experimental: (§1)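 A pool of 90-nt single-stranded DNAs with seven random bases just before the constant AC of the nick site (name = the seven bases) was cut by 3 µM recombinant His6-SUMO-tagged Rep nickase domain (300 nM DNA, 50 mM HEPES pH 8.0, 50 mM NaCl, 1 mM MnCl2, 1 h, 37 °C, three replicates). Uncut DNA was amplified and sequenced.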
# [2] = tested on: T2, Rep nickase domain of banana bunchy top virus
# T2 sequence (protein, residues 1-94, tag omitted): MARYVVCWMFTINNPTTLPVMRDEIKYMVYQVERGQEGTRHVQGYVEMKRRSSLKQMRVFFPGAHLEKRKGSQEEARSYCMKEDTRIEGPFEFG
# Experimental: as §1
# [3] = tested on: T3, Rep nickase domain of cabbage leaf curl virus
# T3 sequence (protein, residues 1-116, tag omitted): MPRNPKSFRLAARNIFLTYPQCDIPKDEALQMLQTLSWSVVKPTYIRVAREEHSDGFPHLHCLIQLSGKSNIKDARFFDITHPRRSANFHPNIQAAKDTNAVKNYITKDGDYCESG
# Experimental: as §1
# [4] = tested on: T4, Rep nickase domain of chickpea chlorotic dwarf virus
# T4 sequence (protein, residues 1-124, tag omitted): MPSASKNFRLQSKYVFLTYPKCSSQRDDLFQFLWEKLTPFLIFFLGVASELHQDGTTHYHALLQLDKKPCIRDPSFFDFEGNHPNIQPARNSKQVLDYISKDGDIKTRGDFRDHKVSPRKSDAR
# Experimental: as §1
# [5] = tested on: T5, Rep nickase domain of faba bean necrotic yellows virus
# T5 sequence (protein, residues 1-98, tag omitted): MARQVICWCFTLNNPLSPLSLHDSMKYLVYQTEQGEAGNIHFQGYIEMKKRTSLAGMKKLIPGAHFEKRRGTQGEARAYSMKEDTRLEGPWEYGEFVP
# Experimental: as §1
# [6] = tested on: T6, Rep nickase domain of maize striate mosaic virus
# T6 sequence (protein, residues 1-117, tag omitted): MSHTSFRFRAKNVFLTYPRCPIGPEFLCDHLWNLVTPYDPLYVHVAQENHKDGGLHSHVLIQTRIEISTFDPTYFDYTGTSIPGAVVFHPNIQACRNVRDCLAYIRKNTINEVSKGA
# Experimental: as §1
# [7] = tested on: T7, Rep nickase domain of porcine circovirus 2
# T7 sequence (protein, residues 2-116, tag omitted): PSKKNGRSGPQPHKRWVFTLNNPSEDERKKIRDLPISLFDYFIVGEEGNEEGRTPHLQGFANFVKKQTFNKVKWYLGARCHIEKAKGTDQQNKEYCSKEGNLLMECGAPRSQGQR
# Experimental: as §1
# [8] = tested on: T8, Rep nickase domain of tomato golden mosaic virus
# T8 sequence (protein, residues 1-124, tag omitted): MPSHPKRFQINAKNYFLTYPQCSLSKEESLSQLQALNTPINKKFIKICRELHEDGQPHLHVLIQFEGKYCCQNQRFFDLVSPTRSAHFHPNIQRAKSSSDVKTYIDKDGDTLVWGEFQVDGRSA
# Experimental: as §1
# [9] = tested on: T9, Rep nickase domain of tomato yellow leaf curl virus
# T9 sequence (protein, residues 1-136, tag omitted): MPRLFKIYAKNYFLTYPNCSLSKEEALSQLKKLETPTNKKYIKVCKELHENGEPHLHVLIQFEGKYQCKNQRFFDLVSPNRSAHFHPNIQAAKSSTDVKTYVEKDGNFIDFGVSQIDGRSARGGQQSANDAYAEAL
# Experimental: as §1
# [10] = tested on: T10, Rep nickase domain of wheat dwarf virus
# T10 sequence (protein, residues 1-137, tag omitted): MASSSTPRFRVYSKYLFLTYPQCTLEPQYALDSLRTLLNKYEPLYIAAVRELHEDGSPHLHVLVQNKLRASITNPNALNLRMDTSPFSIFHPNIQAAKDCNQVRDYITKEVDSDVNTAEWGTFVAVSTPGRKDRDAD
# Experimental: as §1
Sequence,uncleaved DNA left (log2) [1],uncleaved DNA left (log2) [2],uncleaved DNA left (log2) [3],uncleaved DNA left (log2) [4],uncleaved DNA left (log2) [5],uncleaved DNA left (log2) [6],uncleaved DNA left (log2) [7],uncleaved DNA left (log2) [8],uncleaved DNA left (log2) [9],uncleaved DNA left (log2) [10]
AAATCCC,-0.048,-0.141,-2.62,-2.33,-0.06,-0.532,-0.427,-0.649,-0.0821,-1
TGCTGGG,-0.0442,0.0108,-0.245,-0.429,0.0329,-0.795,0.0961,0.0403,0.0383,-0.0572
AATTACC,-0.013,-0.158,-0.32,-2.51,-0.03,-0.364,-1.99,-0.0407,0.134,-0.0797
GCAACTA,0.0566,0.0471,0.0262,-0.648,0.0872,0.11,-0.0532,0.0579,0.0705,0.0769
GCCTCTA,0.093,0.201,0.0446,-0.116,-0.0786,0.316,-0.0383,0.0946,-0.0757,0.142
TAGAGAA,0.0699,-0.137,0.186,-0.121,-0.0258,-0.0804,-0.968,0.0296,-0.132,0.0418
AGTGATA,0.151,0.159,0.171,0.582,0.144,1.38,-0.112,0.171,0.0886,0.147
AACCGGA,-0.0216,-0.0295,0.148,0.225,-0.00616,0.0504,-0.116,0.0614,-0.0516,-0.00677
AGGGCGA,-0.0267,-0.0618,-0.436,-0.241,-0.0642,-0.58,0.155,-0.078,-0.0894,-0.186
GGCAGCT,-0.0356,-0.0592,0.359,0.876,-0.0933,1.13,0.111,-0.165,-0.16,-0.0146
AACCAGG,0.0477,0.0191,0.181,0.748,0.0117,0.0559,0.0772,0.0774,-0.0441,0.122
CACCTGC,-0.217,-0.0226,-0.543,-0.569,-0.00921,-0.852,-0.139,-0.113,0.116,0.106
AGAAGAG,0.0444,0.172,-0.466,-0.312,0.0118,-0.846,0.276,0.0794,0.0412,0.05
GAACCGC,-0.0802,-0.051,-0.0751,-0.389,-0.0602,-0.39,-0.158,0.0047,-0.0283,0.0282
GAACGCC,0.16,0.0911,0.232,0.164,-0.0132,0.403,0.123,0.0338,0.1,0.0193
GTACACG,-0.0286,-0.0979,-0.684,-0.694,-0.0449,-0.843,0.109,-0.0313,0.00859,-0.166
ATATGTA,-0.316,0.0193,-0.222,-1.16,0.0592,-0.819,-0.446,0.0746,0.0129,-0.0478
GATGTTT,0.0568,-0.41,0.214,-0.785,0.0519,0.917,-0.382,-0.0438,0.111,-0.0239
ACCCTTT,-0.0907,-0.0364,-0.205,-2.02,0.0512,-0.637,-0.573,-0.0197,-0.0416,-0.133
ATAACGA,0.0663,0.0265,-0.821,-0.916,0.0281,-1.08,0.138,-0.0392,-0.108,-0.113
CATGGCA,-0.104,-0.0553,-0.619,-0.776,-0.0519,-1.22,-0.00629,-0.181,-0.0672,-0.103

Sequence,uncleaved DNA left (log2) [1],uncleaved DNA left (log2) [2],uncleaved DNA left (log2) [3],uncleaved DNA left (log2) [4],uncleaved DNA left (log2) [5],uncleaved DNA left (log2) [6],uncleaved DNA left (log2) [7],uncleaved DNA left (log2) [8],uncleaved DNA left (log2) [9],uncleaved DNA left (log2) [10]
CTGCTGA,0.123,0.191,0.131,0.674,0.0314,0.438,0.185,0.11,-0.0276,0.0798
AGTACTA,0.0678,0.00778,0.0105,-0.257,-0.0209,0.728,-0.514,0.0771,0.0559,0.146
GTCGTCG,0.0797,0.0389,0.00421,0.119,-0.067,-0.121,0.0906,0.0378,0.0504,-0.0788
CTAATAG,-0.0861,-0.17,-0.919,-0.55,-0.0108,-1.39,0.164,-0.11,-0.0608,-0.076
ACGCCCT,-0.00593,-0.0203,-0.303,-1.53,-0.107,-0.542,-0.146,0.0526,-0.215,-0.00789
GCACGGG,-0.0289,-0.0968,-0.135,0.25,-0.0897,-0.386,0.161,-0.12,-0.0693,0.0701
TTCCGCA,0.0331,-0.0349,-0.032,-0.596,-0.00166,-0.768,-0.0896,-0.0796,0.0221,-0.0505
GAATAGA,0.00824,0.0097,-0.00193,0.209,0.00323,-0.252,-0.116,-0.0231,-0.0265,-0.0609
CGCGCAG,-0.168,-0.0254,-0.319,-0.193,-0.0438,-0.398,0.142,0.0459,-0.0312,-0.0656
ATCGGGG,0.172,-0.0413,0.797,1.16,-0.0591,1.82,0.263,0.0696,-0.173,0.131
AACTAGC,0.0785,-0.0619,-0.562,-0.712,-0.00802,-1.21,-0.0361,-0.104,-0.0307,-0.111
TATTGGT,-3.27,-3.23,-0.886,-1.71,-0.107,-0.89,-3.68,-0.161,-0.0547,-0.196
GGTAAGC,0.0146,0.0335,0.675,1.51,0.0364,1.75,0.18,0.0141,0.045,-0.00525
AATGCAA,-0.0153,0.0599,-0.281,-0.314,0.0767,-0.864,0.0717,-0.000849,0.0979,-0.0197
AACTCGT,-0.158,-0.229,-0.408,-1.64,-0.0471,-1.01,-3.27,0.0165,0.0478,-0.0723
CGGGCTG,-0.0591,0.0197,0.172,0.849,-0.0517,1.64,0.0623,0.00607,-0.12,-0.145
CCGATTC,0.0973,0.00545,0.0825,-0.104,0.0941,-0.467,0.0353,0.0741,0.0159,-0.0072
GCAACCC,-0.202,0.0869,0.0471,-0.246,-0.123,-0.0901,-1.25,-0.0417,-0.0697,0.0504
TCGGATG,-0.0242,-0.0828,-0.0324,0.465,-0.149,0.871,0.0393,-0.099,-0.152,-0.178
GGTAGTG,0.048,-0.0153,-0.101,0.0442,0.017,-0.302,0.12,0.0701,0.0104,0.0547
CGCTTAT,0.00982,0.0801,0.31,-0.381,0.309,-0.11,-0.982,0.164,0.11,0.305

Sequence,uncleaved DNA left (log2) [1],uncleaved DNA left (log2) [2],uncleaved DNA left (log2) [3],uncleaved DNA left (log2) [4],uncleaved DNA left (log2) [5],uncleaved DNA left (log2) [6],uncleaved DNA left (log2) [7],uncleaved DNA left (log2) [8],uncleaved DNA left (log2) [9],uncleaved DNA left (log2) [10]
AGCCGAC,-0.0142,-0.127,0.0437,0.462,-0.0906,0.781,-0.0178,-0.00496,-0.101,-0.104
CCTGCAG,-0.0972,-0.227,-0.946,-0.77,-0.115,-1.29,-0.145,-0.225,-0.131,-0.215
ACCCGCG,-0.0167,0.0759,0.283,1.7,0.0793,1.72,0.187,0.0378,0.0375,0.00781
AGAGGCA,0.0363,0.0487,0.0572,0.401,0.068,0.152,0.0423,0.0368,-0.0598,0.128
GCATTGT,-0.194,-0.141,-0.585,-0.559,-0.16,-1.07,-0.143,-0.104,-0.0734,-0.079
ATATATG,0.0753,0.145,-0.483,-0.383,0.0881,-1.06,0.227,0.0729,0.0459,-0.0193
AGTTGAA,-0.113,-0.105,-0.0396,0.0962,-0.00562,-0.339,-0.529,0.048,-0.0999,-0.064
CAGCATA,-0.0216,0.0326,-0.345,-2.36,-0.0665,-0.646,-1.01,-0.0818,0.0219,-0.173
CAACCGT,-0.0799,-0.0996,-0.752,-2.13,-0.137,-1.29,-0.454,-0.136,-0.208,-0.279
GTCTACC,6.25e-05,-0.0174,0.248,0.333,-0.106,1.5,-0.0389,0.0374,-0.0247,0.0286
AAGACTT,0.0447,-0.114,0.103,0.42,-0.0702,1.68,-3.07,0.176,0.179,0.154
CCATACA,-0.293,-0.0501,-0.239,-2.29,-0.041,-1.05,-0.135,-0.0733,-0.0546,-0.131
GTTACTC,-0.0596,0.0895,0.343,0.528,-0.107,1.51,-0.0218,-0.0849,0.00608,0.044
CCCGGTA,0.00631,0.0189,0.226,0.0872,0.112,0.368,-0.0249,0.0916,0.0886,0.0146
TGCTTCC,-0.123,-0.0349,0.149,-0.0218,-0.00308,0.221,-0.089,-0.102,0.0719,-0.105
CCCTCTA,-0.0977,-0.012,0.0406,-1.3,0.125,-0.289,-0.271,-0.0248,0.0364,-0.00991
ACCAGGC,0.0801,0.127,-0.329,-0.177,0.141,-0.883,0.239,0.0677,0.0483,-0.0779
ACCGGCG,0.065,0.0938,0.233,1.64,0.08,1.66,0.189,0.0563,0.0845,-0.00228
TAGACAT,-0.0267,0.0937,0.81,1.93,-0.0465,2.17,-0.943,-0.0238,0.042,0.219
GTCTGGT,-0.101,-0.0182,0.322,0.77,0.0626,1.63,-0.176,0.0445,0.0299,-0.0404
